# According to PMC5836133:
# The list shows a part of the results. At the low end of the ranking the order means little.
# Test system: T1, GST-NbGlk1(82-244)
# T1 sequence: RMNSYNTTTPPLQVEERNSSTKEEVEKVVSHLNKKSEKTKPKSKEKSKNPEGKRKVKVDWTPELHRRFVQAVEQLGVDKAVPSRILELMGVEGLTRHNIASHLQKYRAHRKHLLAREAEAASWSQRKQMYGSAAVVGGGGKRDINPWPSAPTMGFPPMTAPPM
# Assay: protein-binding microarray;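 also: rank-based score ranging −0.5 to +0.5 with E above 0.45 taken as significant binding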
# Details: NbGlk1 is a Golden2-like transcription factor of Nicotiana benthamiana; high values mean tight binding; most listed sequences are background and not binding sites; double strand, one strand shown
row,Sequence,binding signal [E-score]
1,ACGGGTGC,-0.345
2,AGCGTGCC,-0.327
3,AACGCCAG,-0.29
4,ACCTCTAG,-0.162
5,CACGTTCG,-0.138
6,AATTTAGG,0.172
7,ACACGCTC,-0.108
8,AGCAACCA,-0.0543
9,AAGCTAGG,-0.0998
10,ACTACTAG,-0.124
11,ATTCGCGA,0.318
12,AAATGCAA,0.097
13,ATAAAGAC,0.121
14,AGTGCTCG,-0.134
15,AAAGATCT,0.38
16,ACACTATC,0.0525
17,ACGCTTCC,-0.161
18,ATGAACGG,-0.0903
19,AGTCATGA,0.0313
20,ACTCAACG,-0.0861
21,AGTTACGA,0.0503
22,AGCAACGC,-0.202
23,ATAATGTA,0.2
24,ACTCGCAC,-0.163
25,ACCCTTGG,-0.144

row,Sequence,binding signal [E-score]
1,ATAAATCC,0.244
2,ATACTCGG,0.142
3,ATCGTCTG,0.0629
4,ACAGTGCA,0.0164
5,ATCTGAGC,0.219
6,AATCCTGA,0.399
7,ATCATTGG,0.111
8,AGTTGGGA,0.0639
9,ATATAGCC,0.0876
10,ATGCTCGA,-0.07
11,ACTTTTAT,0.155
12,ACGGATAA,0.0259
13,AAGTATTC,0.00686
14,ACGCCGAC,-0.257
15,ACTCCCGA,0.0489
16,ACACGCTA,-0.0171
17,AGCCTACT,-0.16
18,AACTGAGT,-0.189
19,AGGACTTC,-0.162
20,ATGCAATC,0.452
21,CAAATTTC,0.232
22,CACTCAGG,-0.286
23,AATCTGTC,0.391
24,ACTAGTCT,-0.0503
25,AACTAGCC,-0.0582

row,Sequence,binding signal [E-score]
1,CAGCGAGG,-0.137
2,AGACCAGC,-0.134
3,ACACGAAT,0.25
4,ATCGGGAA,0.276
5,CAAATCAA,0.228
6,ATTTGGAA,0.149
7,ATTACCCC,0.247
8,CACCGGCG,-0.231
9,ATTTCCAG,0.343
10,ATCATCAG,0.0567
11,AATCTAAC,0.413
12,AAACCTAC,-0.00276
13,AAAATTTA,0.248
14,CACCTCGG,-0.222
15,ATGAAAAT,0.321
16,ATTGTTAG,0.143
17,CAATCCGA,0.35
18,ACATAGAT,0.223
19,AGACTCAC,-0.277
20,ACGTCCAA,-0.153
21,AAGGTGCT,-0.185
22,ATGGGACG,-0.158
23,AATTGTGG,0.15
24,ATTTTATA,0.281
25,AACTCGGC,-0.0141

row,Sequence,binding signal [E-score]
1,ACAGTCGA,-0.00395
2,AAGCTAGA,0.0466
3,AGTAGCCG,-0.225
4,ATGGGTAA,0.0482
5,AAGCCTGT,-0.137
6,ACCATTGC,-0.127
7,ATGATAGC,-0.00753
8,ATTGGGCG,-0.106
9,AGATTGAC,0.0103
10,AAAAATGA,0.112
11,AAGGGGGA,-0.0894
12,ATTTCGAG,0.269
13,AGGTGCGA,-0.0439
14,AAGTCCAG,-0.0936
15,AGGCGCTC,-0.179
16,AACGGGAT,0.121
17,ATATTTAG,0.298
18,ATCCGAGC,0.174
19,AGTTTGTG,-0.0786
20,ACCCCCAG,-0.295
21,CAAGGTGC,-0.282
22,ACTAAGGC,-0.166
23,CACGAGTG,-0.086
24,AAGGGCAT,-0.154
25,ACGTGGAC,-0.0674

row,Sequence,binding signal [E-score]
1,ATCGTTTG,0.00889
2,AAGCTGAT,0.0401
3,ATGCTCTC,-0.157
4,AGTAGGGA,-0.101
5,CAAGCAGA,0.113
6,AATAGCTC,-0.0662
7,CAGATAGC,0.12
8,AATCGTTG,0.203
9,AAAGTCCA,-0.263
10,ATTATAGC,0.0652
11,AGGGGACG,-0.267
12,ATGGGTCA,-0.222
13,AGAGTTAG,0.0805
14,ATTTCGCC,0.17
15,AATGAAGT,-0.0292
16,CACAATGC,-0.0659
17,ACAACGGG,-0.135
18,AACCTCTA,-0.179
19,ATAGGGTA,0.0279
20,CAGAGGCG,-0.2
21,AGCGCCAG,-0.152
22,ATCTAAAA,0.244
23,AAGCGACT,-0.23
24,ATTGACTA,-0.0881
25,ATGGCCTG,-0.0819

row,Sequence,binding signal [E-score]
1,AGGATGGC,-0.192
2,ACACTTCG,-0.0148
3,ATCTTAGA,0.243
4,ATATAGTA,0.15
5,AAGCCCCG,-0.248
6,ATTGCCGA,0.184
7,ACTATTTC,-0.0196
8,ACTCCAGC,-0.197
9,ACTACTTA,0.0668
10,AATGTATG,0.0607
11,AGCAATGA,-0.0666
12,AAACCTCC,-0.279
13,AAAGGAAG,-0.148
14,ACGACTAT,-0.042
15,ATAGCTTG,0.0516
16,AAATGCTT,0.0584
17,ACCCAAGA,0.0238
18,CAGAGAAA,0.0998
19,ACGGAAAG,-0.131
20,AATTTTGG,0.25
21,ACCGGGAT,0.178
22,ATATGAAG,0.207
23,AAGAAAGA,-0.0342
24,ACCCGTAA,0.0729
25,ACTATCGA,0.106

row,Sequence,binding signal [E-score]
1,ACCAGATC,0.2
2,AGTTGAAT,-0.0612
3,AATGTTCT,-0.0168
4,AGTACCGC,-0.22
5,AAATTGTT,0.114
6,ACTCACCG,-0.137
7,ACTGATCT,0.0467
8,ACTAGACC,-0.176
9,ATTAGCGG,0.00925
10,AGGAGCAG,-0.254
11,AAACAGAG,-0.0862
12,ACCAGGCC,-0.238
13,AGTTAGAC,-0.177
14,AGTTGGCC,-0.182
15,AGATCGGA,0.277
16,ACGTATTA,0.113
17,AGATTATA,0.31
18,AAGGTGTA,-0.108
19,AGTACTCC,-0.125
20,CAGCCAAC,-0.23
21,ACCTAAAA,0.0323
22,CACTACAG,-0.149
